# Reference: paper PMC4336329 (PLoS ONE, 2015)
# The campaign covered roughly 310,000 compounds. About 14,000 (4.5%) showed an effect of 50% or more. Effects have a minus sign here. The list shows a part of the results.
# Molecular target: human ether-à-go-go-related gene (hERG) potassium channel (human, UniProt Q12809)
# Assay: primary screen, population patch clamp on CHO cells stably expressing hERG
# 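Also: peak tail current of the secondary pulse compared with the same well before compound.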
# human ether-à-go-go-related gene (hERG) potassium channel, sequence (Q12809 whole entry, looked up): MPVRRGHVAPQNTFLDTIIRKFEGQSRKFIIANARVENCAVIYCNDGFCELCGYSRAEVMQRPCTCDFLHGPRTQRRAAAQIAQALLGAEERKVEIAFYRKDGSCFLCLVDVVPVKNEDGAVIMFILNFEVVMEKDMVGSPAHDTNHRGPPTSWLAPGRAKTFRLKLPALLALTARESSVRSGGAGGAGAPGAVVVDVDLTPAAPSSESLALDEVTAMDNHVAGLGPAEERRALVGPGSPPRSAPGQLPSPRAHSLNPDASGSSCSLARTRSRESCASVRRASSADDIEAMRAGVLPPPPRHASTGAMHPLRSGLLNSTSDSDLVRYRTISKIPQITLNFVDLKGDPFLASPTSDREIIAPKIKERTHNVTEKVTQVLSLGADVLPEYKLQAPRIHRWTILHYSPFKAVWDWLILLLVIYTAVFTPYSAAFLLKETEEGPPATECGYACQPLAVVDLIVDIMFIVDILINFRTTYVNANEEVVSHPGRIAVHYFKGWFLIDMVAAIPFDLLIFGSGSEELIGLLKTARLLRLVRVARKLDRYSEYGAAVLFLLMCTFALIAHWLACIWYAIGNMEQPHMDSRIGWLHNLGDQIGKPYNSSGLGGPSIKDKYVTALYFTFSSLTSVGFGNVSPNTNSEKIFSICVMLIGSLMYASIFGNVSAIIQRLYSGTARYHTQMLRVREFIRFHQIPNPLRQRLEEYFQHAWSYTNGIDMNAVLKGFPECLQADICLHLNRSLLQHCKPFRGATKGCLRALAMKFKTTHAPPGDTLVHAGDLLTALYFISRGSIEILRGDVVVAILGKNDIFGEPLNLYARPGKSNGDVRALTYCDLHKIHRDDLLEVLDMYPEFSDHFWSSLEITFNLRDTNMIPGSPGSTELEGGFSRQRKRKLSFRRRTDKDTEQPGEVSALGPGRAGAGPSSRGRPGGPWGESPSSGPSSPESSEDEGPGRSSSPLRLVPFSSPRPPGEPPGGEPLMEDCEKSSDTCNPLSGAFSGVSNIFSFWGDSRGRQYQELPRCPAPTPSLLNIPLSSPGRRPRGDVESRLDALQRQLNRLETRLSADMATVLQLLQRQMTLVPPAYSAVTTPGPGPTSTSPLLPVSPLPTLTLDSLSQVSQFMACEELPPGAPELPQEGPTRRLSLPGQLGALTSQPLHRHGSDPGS
row,SMILES,"hERG current change (%, negative = inhibition) at 10uM [%]"
1,CCc1c(C)sc(NC(=O)C2CC2c2ccccc2)c1C(N)=O (stereo not drawn),9.05
2,O=C1CCC(C(=O)N2CCN(c3ccc(F)cc3)CC2)CN1CC1CCCCC1 (stereo not drawn),-41.9
3,O=C1C2C3c4ccccc4C(c4ccccc43)C2C(=O)N1/N=C/c1cccc(O)c1 (stereo not drawn),10.1
4,CCCOP(=O)(OCCC)C(Nc1ccc(C(C)C)cc1)c1ccc([N+](=O)[O-])cc1 (stereo not drawn),3.7
5,COc1ccc(C(=O)NCC2OCCc3ccccc32)cc1OC (stereo not drawn),9.91
6,CCCCC(=O)N/N=C/c1c(O)n(CCC2=CCCCC2)c(=O)[nH]c1=O,12.6
7,CCN(CC)c1ccc(C(=O)NC(=S)N2CCN(Cc3ccc4c(c3)OCO4)CC2)cc1,6.26
8,CCCCc1ccc(C(=O)O)nc1,11
9,O=C(COc1ccc(S(=O)(=O)N2CCCC2)cc1)Nc1ccc2c(c1)OCCO2,3.53
10,Cc1cc(C=O)c(C)n1-c1cc(C(=O)O)cc(C(=O)O)c1,25.6
11,O=[N+]([O-])c1cccc(/C=N/n2cnnc2)c1,2.94
12,CCOc1ccc(CCNC(=O)CCNC(=O)c2ccc(Br)cc2)cc1OCC,4.21
13,Cc1ccc(CS/C(Nc2ccccc2C)=C(\C#N)C(N)=O)c(C)c1,7.74
14,CC(C)CNC(=O)CC(c1ccccc1)c1ccccc1,8.26
15,CC1=C(c2ccccc2)[N+](=O)C2(CCCC2)N1[O-],10.3
16,Cc1cc(C)c(NC(=O)CN2CCOCCOCCOCCOCC2)c(C)c1,-2.32
17,Cc1ccc(-c2cc(-c3ccccc3)nc(N(C)N)n2)cc1,16.7
18,CC(C)(C)NC(=S)NCc1ccncc1,-4.31
19,CC(C)Cc1nnc(NC(=O)CCC(=O)NCc2ccccc2Cl)s1,18.4

row,SMILES,"hERG current change (%, negative = inhibition) at 10uM [%]"
1,CCOC(=O)C1=C(CSc2nccn2C)NC(=O)NC1c1ccc2c(c1)OCO2 (stereo not drawn),3.27
2,CC(=O)c1ccc(NC(=O)C2(S(=O)(=O)c3ccccc3)CC2)cc1,-2.55
3,COc1ccc2oc(C(=O)OCC(=O)NC3(C#N)CCCC3)c(C)c2c1,1
4,CSc1nnc2c(n1)OC=Nc1ccccc1-2,-3.17
5,COc1ccccc1N(C(=O)c1snc(C(N)=O)c1N)C(C(=O)NC1CCCC1)c1ccco1 (stereo not drawn),-35.4
6,Cc1ccc2nc(SCc3nnc(-c4cccs4)o3)[nH]c2c1,-26.4
7,CC(=O)N[C@@H](Cc1c[nH]c2ccccc12)C(=O)NCc1ccccc1,13.3
8,CCOC(=O)N1CCN(S(=O)(=O)c2cc3c(cc2C)NC(=O)CO3)CC1,-36.2
9,O=C(Oc1ccc2ccc(OC(=O)N3CCOCC3)cc2c1)N1CCOCC1,-6.64
10,COc1cc(C(=O)C(=O)c2ccc(O)c(OC)c2)ccc1O,8
11,CSc1ccccc1C(=O)C1CCCN(C(=O)c2cc(C(C)C)no2)C1 (stereo not drawn),-69.6
12,Cc1ccc(S(=O)(=O)N(CC(=O)NCc2ccncc2)Cc2ccc(F)cc2)cc1,-79.2
13,COC(=O)C1=C(C)n2cnnc2NC1c1ccc(Cl)cc1 (stereo not drawn),0.784
14,Brc1ccc(C=Nc2ccc3c(c2)OCCOCCOCCO3)s1,-66.2
15,Cc1ccc(-n2cc(CN(C)Cc3ncc[nH]3)c(-c3cccc(C)c3)n2)cc1,-34.8
16,COc1ccc(OCC(=O)N2CCN(c3nnc(-c4ccc(C)cc4)c4ccccc34)CC2)cc1,-44.9
17,O=C(OCCCCN1C(=O)c2ccccc2C1=O)c1n[nH]c2ccccc12,-8.86
18,Cc1cc(C)c(NC(=O)CCCN2CCOCC2)c(C)c1,13.1
19,CCOC(=O)C1=NNC2(c3ccc(Cl)cc3)C(=O)N(c3ccc(C)cc3)C(=O)C12 (stereo not drawn),11.9

row,SMILES,"hERG current change (%, negative = inhibition) at 10uM [%]"
1,CCC(C)(C)NC(=O)C(c1ccc(OC)cc1)N(C(=O)CCC(=O)Nc1cc(C)on1)c1ccc(OC)c(OC)c1 (stereo not drawn),3.38
2,O=C(CN(Cc1ccco1)S(=O)(=O)c1ccccc1)N/N=C/c1ccccc1C(=O)O,19.6
3,COc1ccc(NC(=O)CSc2ccc(-c3ccccn3)nn2)cc1OC,-23.1
4,CCOC(=O)C1=NOC(CNC(=O)C2=NOC(CNC(=O)c3c(-c4ccccc4Cl)noc3C)C2)C1 (stereo not drawn),-12.1
5,CCCCc1c(O)nc(SCC(=O)O)[nH]c1=O,40.9
6,COc1ccc(CCNC(=O)Cc2ccsc2)cc1,18.9
7,O=C(NCCS(=O)(=O)NCc1ccco1)c1ccccc1,3.68
8,COc1ccc(/C=C/C(=O)Nc2ccc3nc4n(c(=O)c3c2)CCCC4)cc1OC,-8.54
9,O=C(Nc1cccc(NC(=O)c2ccccc2F)c1)c1ccccc1,8.73
10,CCN1CCc2c(sc(NC(=O)C3CCCCC3)c2C(=O)OC)C1.Cl,-17.4
11,CCCCCCCSc1nnc(N)s1,9.7
12,O=C(c1cnsn1)N1CCN(c2ccccn2)CC1,10.6
13,C/C(=N\N=C1/NC(=O)C(C)S1)c1ccc([N+](=O)[O-])cc1 (stereo not drawn),-1.14
14,CCn1c(CCc2ccccc2)n[nH]c1=S,14.9
15,CCc1cccc(OCC(=O)N(C)CC(=O)Nc2cccc(F)c2)c1,-9.84
16,COc1ccc2cc(C3c4cc(OC)c(OC)cc4CCN3C(=O)c3ccco3)c(=O)[nH]c2c1 (stereo not drawn),-34.2
17,COc1ccc([N+](=O)[O-])cc1NC(=O)CC(c1ccccc1)c1ccccc1,-2.25
18,O=C(c1cccc([N+](=O)[O-])c1)N1CCN(C/C=C/c2ccccc2)CC1,-65.9
19,N#CCC(=O)N/N=C\c1ccc(OC/C=C/c2ccccc2)cc1,14.4
